# In the supplement of paper PMC8728848:
# This is one part of the list.
# B1: HPA (Helix pomatia), Q575S3 (protein)
# chain: MWAHLTGLLLICALSLSAAQRAQTGEIDCGSDSSWPKDPSDNPNRDNTREIVKHVTFSPQFCREPKVILSVTTLDAEHTKNLRYEARLKSVSPSGLSASCYSWHDGTIYRMKLSWLAVED
# Experiments:
# Experiment in all cases: glycan array binding signal (z-score within array); higher = stronger binding
# Settings in all cases: glycan notation: IUPAC condensed, linker removed
# [1] = target: Gal(b1-3)GlcNAc(b1-2)[Gal(b1-3)GlcNAc(b1-6)]Man(a1-6)[Gal(b1-3)GlcNAc(b1-2)Man(a1-3)]Man(b1-4)GlcNAc(b1-4)GlcNAc
# Outline: (§1)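 The Consortium for Functional Glycomics database supplied 3228 glycan arrays, of which those lacking an available protein sequence were dropped. The binding signal, a within-array Z-score, was averaged across arrays of the same protein sequence and across linkers. Negative scores can be read as non-binding.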
# [2] = target: Gal(b1-3)GlcNAc(b1-3)Gal(b1-3)GlcNAc
# Outline: as §1
# [3] = target: Gal(b1-3)GlcNAc(b1-3)Gal(b1-4)Glc
# Outline: as §1
# [4] = target: Gal(b1-3)GlcNAc(b1-3)Gal(b1-4)GlcNAc
# Outline: as §1
# [5] = target: Gal(b1-3)GlcNAc(b1-3)Gal(b1-4)GlcNAc(b1-2)Man(a1-3)[Gal(b1-3)GlcNAc(b1-3)Gal(b1-4)GlcNAc(b1-2)Man(a1-6)]Man(b1-4)GlcNAc(b1-4)GlcNAc
# Outline: as §1
# [6] = target: Gal(b1-3)GlcNAc(b1-3)Gal(b1-4)GlcNAc(b1-2)[Gal(b1-3)GlcNAc(b1-3)Gal(b1-4)GlcNAc(b1-6)]Man(a1-6)[Gal(b1-3)GlcNAc(b1-3)Gal(b1-4)GlcNAc(b1-2)Man(a1-3)]Man(b1-4)GlcNAc(b1-4)[Fuc(a1-6)]GlcNAc
# Outline: as §1
# [7] = target: Gal(b1-3)GlcNAc(b1-3)Gal(b1-4)GlcNAc(b1-3)Gal(b1-4)GlcNAc(b1-2)[Gal(b1-3)GlcNAc(b1-3)Gal(b1-4)GlcNAc(b1-3)Gal(b1-4)GlcNAc(b1-6)]Man(a1-6)[Gal(b1-3)GlcNAc(b1-3)Gal(b1-4)GlcNAc(b1-3)Gal(b1-4)GlcNAc(b1-2)Man(a1-3)]Man(b1-4)GlcNAc(b1-4)[Fuc(a1-6)]GlcNAc
# Outline: as §1
# [8] = target: Gal(b1-3)GlcNAc(b1-3)Gal(b1-4)GlcNAc(b1-6)[Gal(b1-3)GlcNAc(b1-3)]Gal(b1-4)Glc
# Outline: as §1
# [9] = target: Gal(b1-3)GlcNAc(b1-3)Gal(b1-4)[Fuc(a1-3)]GlcNAc
# Outline: as §1
# [10] = target: Gal(b1-3)GlcNAc(b1-3)Gal(b1-4)[Fuc(a1-3)]GlcNAc(b1-6)[Gal(b1-3)GlcNAc(b1-3)]Gal(b1-4)Glc
# Outline: as §1
# [11] = target: Gal(b1-3)GlcNAc(b1-3)GalNAc
# Outline: as §1
# [12] = target: Gal(b1-3)GlcNAc(b1-6)Gal(b1-4)GlcNAc
# Outline: as §1
# [13] = target: Gal(b1-3)GlcNAc(b1-6)GalNAc
# Outline: as §1
# [14] = target: Gal(b1-3)GlcNAc(b1-6)[Gal(b1-3)]GalNAc
# Outline: as §1
# Gal(b1-3)GlcNAc6S = target: Gal(b1-3)GlcNAc6S
# Outline: as §1
# [15] = target: Gal(b1-3)[Fuc(a1-4)]GlcNAc
# Outline: as §1
# [16] = target: Gal(b1-3)[Fuc(a1-4)]GlcNAc(b1-2)Man
# Outline: as §1
# [17] = target: Gal(b1-3)[Fuc(a1-4)]GlcNAc(b1-2)Man(a1-3)[Gal(b1-3)[Fuc(a1-4)]GlcNAc(b1-2)Man(a1-6)]Man(b1-4)GlcNAc(b1-4)GlcNAc
# Outline: as §1
# [18] = target: Gal(b1-3)[Fuc(a1-4)]GlcNAc(b1-2)Man(a1-3)[Gal(b1-3)[Fuc(a1-4)]GlcNAc(b1-2)Man(a1-6)]Man(b1-4)GlcNAc(b1-4)[Fuc(a1-6)]GlcNAc
# Outline: as §1
# [19] = target: Gal(b1-3)[Fuc(a1-4)]GlcNAc(b1-3)Gal(b1-3)[Fuc(a1-4)]GlcNAc
# Outline: as §1
# [20] = target: Gal(b1-3)[Fuc(a1-4)]GlcNAc(b1-3)Gal(b1-4)GlcNAc
# Outline: as §1
# [21] = target: Gal(b1-3)[Fuc(a1-4)]GlcNAc(b1-3)Gal(b1-4)[Fuc(a1-3)]GlcNAc
# Outline: as §1
# [22] = target: Gal(b1-3)[Fuc(a1-4)]GlcNAc(b1-6)GalNAc
# Outline: as §1
# [23] = target: Gal(b1-3)[GlcNAc(b1-6)]GalNAc
# Outline: as §1
# [24] = target: Gal(b1-3)[Neu5Ac(a2-6)]GalNAc
# Outline: as §1
# [25] = target: Gal(b1-3)[Neu5Ac(a2-6)]GlcNAc(b1-4)Gal(b1-4)Glc
# Outline: as §1
# [26] = target: Gal(b1-3)[Neu5Ac(a2-6)]GlcNAc(b1-6)Gal(b1-4)Glc
# Outline: as §1
# [27] = target: Gal(b1-3)[Neu5Ac(b2-6)]GalNAc
# Outline: as §1
# Gal(b1-4)Gal = target: Gal(b1-4)Gal
# Outline: as §1
# [28] = target: Gal(b1-4)GalNAc(a1-3)[Fuc(a1-2)]Gal(b1-4)GlcNAc
# Outline: as §1
# [29] = target: Gal(b1-4)GalNAc(b1-3)[Fuc(a1-2)]Gal(b1-4)GlcNAc
# Outline: as §1
# Gal(b1-4)Glc = target: Gal(b1-4)Glc
# Outline: as §1
# Gal(b1-4)Glc6S = target: Gal(b1-4)Glc6S
# Outline: as §1
# Gal(b1-4)GlcNAc = target: Gal(b1-4)GlcNAc
# Outline: as §1
# [30] = target: Gal(b1-4)GlcNAc(a1-6)Gal(b1-4)GlcNAc
# Outline: as §1
# Gal(b1-4)GlcNAc(b1-2)Man = target: Gal(b1-4)GlcNAc(b1-2)Man
# Outline: as §1
# [31] = target: Gal(b1-4)GlcNAc(b1-2)Man(a1-3)Man(b1-4)GlcNAc(b1-4)GlcNAc
# Outline: as §1
# [32] = target: Gal(b1-4)GlcNAc(b1-2)Man(a1-3)[Gal(b1-4)GlcNAc(b1-2)Man(a1-6)]Man(b1-4)GlcNAc(b1-4)GlcNAc
# Outline: as §1
# [33] = target: Gal(b1-4)GlcNAc(b1-2)Man(a1-3)[Gal(b1-4)GlcNAc(b1-2)Man(a1-6)]Man(b1-4)GlcNAc(b1-4)[Fuc(a1-6)]GlcNAc
# Outline: as §1
# [34] = target: Gal(b1-4)GlcNAc(b1-2)Man(a1-3)[Gal(b1-4)GlcNAc(b1-2)Man(a1-6)][Gal(b1-4)GlcNAc(b1-4)]Man(b1-4)GlcNAc(b1-4)[Fuc(a1-6)]GlcNAc
# Outline: as §1
# [35] = target: Gal(b1-4)GlcNAc(b1-2)Man(a1-3)[Gal(b1-4)GlcNAc(b1-2)Man(a1-6)][GlcNAc(b1-4)]Man(b1-4)GlcNAc(b1-4)[Fuc(a1-6)]GlcNAc
# Outline: as §1
# [36] = target: Gal(b1-4)GlcNAc(b1-2)Man(a1-3)[Gal(b1-4)GlcNAc(b1-2)][GlcNAc(b1-4)]Man(b1-4)GlcNAc(b1-4)GlcNAc
# Outline: as §1
# [37] = target: Gal(b1-4)GlcNAc(b1-2)Man(a1-3)[GlcNAc(b1-2)Man(a1-6)]Man(b1-4)GlcNAc(b1-4)GlcNAc
# Outline: as §1
# [38] = target: Gal(b1-4)GlcNAc(b1-2)Man(a1-3)[GlcNAc(b1-4)][Gal(b1-4)GlcNAc(b1-2)Man(a1-6)]Man(b1-4)GlcNAc(b1-4)GlcNAc
# Outline: as §1
# [39] = target: Gal(b1-4)GlcNAc(b1-2)Man(a1-3)[Man(a1-6)]Man(b1-4)GlcNAc(b1-4)GlcNAc
# Outline: as §1
binder,measurement,setting,value
B1,glycan array binding signal (z-score),[1],-0.242
same,glycan array binding signal (z-score),[2],-0.268
same,glycan array binding signal (z-score),[3],-0.266
same,glycan array binding signal (z-score),[4],-0.268
same,glycan array binding signal (z-score),[5],-0.257
same,glycan array binding signal (z-score),[6],-0.231
same,glycan array binding signal (z-score),[7],-0.232
same,glycan array binding signal (z-score),[8],-0.246
same,glycan array binding signal (z-score),[9],-0.26
same,glycan array binding signal (z-score),[10],-0.24
same,glycan array binding signal (z-score),[11],-0.248
same,glycan array binding signal (z-score),[12],-0.247
same,glycan array binding signal (z-score),[13],-0.246
same,glycan array binding signal (z-score),[14],-0.252
same,glycan array binding signal (z-score),Gal(b1-3)GlcNAc6S,-0.263
same,glycan array binding signal (z-score),[15],-0.261
same,glycan array binding signal (z-score),[16],-0.231
same,glycan array binding signal (z-score),[17],-0.139
same,glycan array binding signal (z-score),[18],-0.227
same,glycan array binding signal (z-score),[19],-0.27
same,glycan array binding signal (z-score),[20],-0.275
same,glycan array binding signal (z-score),[21],-0.266
same,glycan array binding signal (z-score),[22],-0.238
same,glycan array binding signal (z-score),[23],-0.265
same,glycan array binding signal (z-score),[24],-0.264
same,glycan array binding signal (z-score),[25],-0.258
same,glycan array binding signal (z-score),[26],-0.278
same,glycan array binding signal (z-score),[27],-0.268
same,glycan array binding signal (z-score),Gal(b1-4)Gal,-0.238
same,glycan array binding signal (z-score),[28],-0.268
same,glycan array binding signal (z-score),[29],-0.27
same,glycan array binding signal (z-score),Gal(b1-4)Glc,-0.264
same,glycan array binding signal (z-score),Gal(b1-4)Glc6S,-0.26
same,glycan array binding signal (z-score),Gal(b1-4)GlcNAc,-0.263
same,glycan array binding signal (z-score),[30],-0.269
same,glycan array binding signal (z-score),Gal(b1-4)GlcNAc(b1-2)Man,-0.247
same,glycan array binding signal (z-score),[31],-0.272
same,glycan array binding signal (z-score),[32],-0.282
same,glycan array binding signal (z-score),[33],-0.249
same,glycan array binding signal (z-score),[34],-0.265
same,glycan array binding signal (z-score),[35],-0.261
same,glycan array binding signal (z-score),[36],-0.232
same,glycan array binding signal (z-score),[37],-0.111
same,glycan array binding signal (z-score),[38],-0.254
same,glycan array binding signal (z-score),[39],-0.268
